We go through five molecules from patent US20110014656A1 (ZymoGenetics, published 2011).

Several values for one entry are separate records, joined by “and”; a condition that tells them apart may be missing. Equal entries are not always repeated.

The target of experiment [1] is T1, human IL-17A (human, UniProt Q16552 24-155).
T1 construct: also called hIL-17A; hIL17A
T1 sequence: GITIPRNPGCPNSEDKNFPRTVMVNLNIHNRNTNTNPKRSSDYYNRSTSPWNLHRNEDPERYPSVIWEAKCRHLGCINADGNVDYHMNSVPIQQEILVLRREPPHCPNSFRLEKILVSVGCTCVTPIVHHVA
The experiment can be described thus: cell-based competition binding, FACS. As to the method: (§1) The biotinylation of the ligand allows for FACS detection using a secondary Streptavidin conjugated fluorophore. A reduction in cell bound ligand over a titration of the soluble receptor is recorded as a reduction in the mean fluorescence of the cells. Biotinylated ligands are individually pre-mixed at 1 ug/ml with titrating amounts of soluble receptor in staining media (HBSS+1% BSA+0.1% NaAzide+10 mM HEPES) in 100 ul volumes and incubated at RT for 15 minutes. A BHK cell line stably transfected with full length IL17RCx4 is prepared for ligand staining by resuspension with Versene (Invitrogen cat. 15040-066), equilibrating to 2×10e5 cells/100 ul, pelleting, and resuspension in the ligand/soluble receptor pre-mix. Stained cells are incubated at 4° for 30 minutes, washed 1× in staining media, and stained with Streptavidin-PE (BD Pharmingen cat. 554061) at a 1:100 ratio. Cells are incubated at 4° in the dark for 30 minutes, washed 2× in staining media, and re-suspended in a 1:1 ratio of staining media and Cytofix (BD Bioscience 554655). The BD LSRII Flow Cytometer or similar instrument is used for data collection and analysis. FIG. 5 depicts a standard graph. The graph was generated using the Prizm software program. The Y values represent the MFI normalized to maximum and minimum (100% and 0%) based on ligand only and no ligand/no soluble receptor control wells, and thus the percent binding of the ligand to the cells. The software calculates the IC50 for each curve.

Experiment [2] addresses T2, human IL-17F (human, UniProt Q96PD4 31-163).
T2 construct: also called hIL-17F; hIL17F
T2 sequence: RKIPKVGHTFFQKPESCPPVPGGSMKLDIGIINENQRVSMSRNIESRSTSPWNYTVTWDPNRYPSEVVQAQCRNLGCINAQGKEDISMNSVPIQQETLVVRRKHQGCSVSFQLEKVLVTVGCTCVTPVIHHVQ
The experiment can be described thus: cell-based competition binding, FACS. As to the method:
as §1

The target of experiment [3] is T1, human IL-17A. The experiment is described as follows: cell-based competition binding, FACS; cell-based competition binding on IL-17RC transfected BHK cells; weakest construct. The method, then:
as §1, with “The Y values represent the MFI normalized to maximum and minimum (100% and 0%) based on ligand only and no ligand/no soluble receptor control wells, and thus the percent binding of the ligand to the cells. The software calculates the IC50 for each curve.” left out

In experiment [4] the target is T2, human IL-17F. The experiment is described as follows: cell-based or functional assay.
The target in experiment [5] is T1, human IL-17A. The experiment can be described thus: Biacore, summary of Table 11. The source says:
(§2) The protocol was optimized to capture receptor at a theoretical binding max. before injecting a concentration series of each ligand to observe association and dissociation. […] The surface was regenerated with 2×30 sec. injections of pH 1.75 glycine between cycles.

The target in experiment [6] is T2, human IL-17F. The experiment can be described thus: Biacore, summary of Table 11.
Excerpt: as §2

In experiment [7] the target is T1, human IL-17A. The experiment is described as follows: Biacore, soluble receptor captured on chip, cytokine as analyte.
Experiment [8] has as its target T2, human IL-17F. Described as above.
A further experiment concerns the target T3, murine IL-17A (mouse, UniProt Q62386 26-158).
T3 construct: also called mIL-17A; mIL17A
T3 sequence: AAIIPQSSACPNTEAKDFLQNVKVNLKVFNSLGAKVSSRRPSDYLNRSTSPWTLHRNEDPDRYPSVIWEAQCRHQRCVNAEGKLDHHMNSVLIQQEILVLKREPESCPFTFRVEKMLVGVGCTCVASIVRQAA
The experiment is described as follows: Biacore, soluble receptor captured on chip; ND=no detectable binding.

For a further experiment, the target named is T4, murine IL-17F (mouse, UniProt Q7TNI7 29-161).
T4 construct: also called mIL-17F; mIL17F
T4 sequence: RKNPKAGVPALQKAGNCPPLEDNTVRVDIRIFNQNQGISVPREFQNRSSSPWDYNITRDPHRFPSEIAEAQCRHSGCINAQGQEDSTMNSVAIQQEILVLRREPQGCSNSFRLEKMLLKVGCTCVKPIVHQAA
The experiment is described as above.

The target of experiment [9] is T1, human IL-17A. The experiment is described as follows: Biacore, receptor captured by anti-human IgG Fc on CM5 chip, ligand as analyte.
Excerpt: as §2

Experiment [10] has as its target T2, human IL-17F. The experiment is described as above.
Excerpt: as §2

B1: Variant 1407 (Fc fusion)
chain: [about 300 residues not shown]ALPWLNVSADGDNVHLVLNVSEEQHFGLSLYWNQVQGPPKPRWHKNLTGPQIITLNHTDLVPCLCIQVWPLEPDSVRTNICPFREDPRAHQNLWQAARLRLLTLQSWLLDAPCSLPAEAALCWRAPGGDPCQPLVPPLSWENVTVDKVLEFPLLKGHPNLCVQVNSSEKLQLQECLWADSLGPLKDDVLLLETRGPQDNRSLCALEPSGCTSLPSKASTRAARLGEYLLQDLQSGQCLQLWDDDLGALWACPMDKYIHKEPKSSDKTHTCPPCPAPEAEGAPSVFLFPPKPKDTLMISRTPEVTCVVVDVSHEDPEVKFNWYVDGVEVHNAKTKPREEQYNSTYRVVSVLTVLHQDWLNGKEYKCKVSNKALPSSIEKTISKAKGQPREPQVYTLPPSRDELTKNQVSLTCLVKGFYPSDIAVEWESNGQPENNYKTTPPVLDSDGSFFLYSKLTVDKSRWQQGNVFSCSVMHEALHNHYTQKSLSLSPGK
notes: The entry may include the signal peptide; also called IL17RA/RC 1407
Turning to B1, the IC50 in the experiment with human IL-17A [1] is 7 µg/mL and 9 µg/mL; with human IL-17F [2], 33 µg/mL and 42 µg/mL.

B2: Variant 1342 (Fc fusion)
chain: ALPWLNVSADGDNVHLVLNVSEEQHFGLSLYWNQVQGPPKPRWHKNLTGPQIITLNHTDLVPCLCIQVWPLEPDSVRTNICPFREDPRAHQNLWQAARLRLLTLQSWLLDAPCSLPAEAALCWRAPGGDPCQPLVPPLSWENVTVDKVLEFPLLKGHPNLCVQVNSSEKLQLQECLWADSLGPLKDDVLLLETRGPQDNRSLCALEPSGCTSLPSKASTRAARLGEYLLQDLQSGQCLQLWDDDLGALWACPMDKYIHKGGGGSGGGGSGGGGSGGGGS[human IgG1 Fc with changes not shown]
notes: The entry may include the signal peptide
As for B2, the IC50 amounted to 313 µg/mL with human IL-17F [2] and 217 µg/mL with human IL-17A [3].

B3: Variant 1341 (Fc fusion)
chain: SPRLLDFPAPVCAQEGLSCRVKNSTCLDDSWIHPKNLTPSSPKNIYINLSVSSTQHGELVPVLHVEWTLQTDASILYLEGAELSVLQLNTNERLCVKFQFLSMLQHHRKRWRFSFSHFVVDPGQEYEVTVHHLPKPIPDGDPNHKSKIIFVPDCEDSKMKMTTSCVSSALPWLNVSADGDNVHLVLNVSEEQHFGLSLYWNQVQGPPKPRWHKNLTGPQIITLNHTDLVPCLCIQVWPLEPDSVRTNICPFREDPRAHQNLWQAARLRLLTLQSWLLDAPCSLPAEAALCWRAPGGDPCQPLVPPLSWENVTVDKVLEFPLLKGHPNLCVQVNSSEKLQLQECLWADSLGPLKDDVLLLETRGPQDNRSLCALEPSGCTSLPSKASTRAARLGEYLLQDLQSGQCLQLWDDDLGALWACPMDKYIHKGGGGSGGGGSGGGGSGGGGS[human IgG1 Fc with changes not shown]
notes: The entry may include the signal peptide; also called IL17RA/RC 1341; construct 1341
For the molecule B3, the IC50 was determined as 30 µg/mL with human IL-17A [1] and 47 µg/mL in the experiment with human IL-17F [2].

B4: Variant 1210 (Fc fusion)
chain: LERLVGPQDATHCSPGLSCRLWDSDILCLPGDIVPAPGPVLAPTHLQTELVLRCQKETDCDLCLRVAVHLAVHGHWEEPEDEEKFGGAADSGVEEPRNASLQAQVVLSFQAYPTARCVLLEVQVPAALVQFGQSVGSVVYDCFEAALGSEVRIWSYTQPRYEKELNHTQQLPALPWLNVSADGDNVHLVLNVSEEQHFGLSLYWNQVQGPPKPRWHKNLTGPQIITLNHTDLVPCLCIQVWPLEPDSVRTNICPFREDPRAHQNLWQAARLRLLTLQSWLLDAPCSLPAEAALCWRAPGGDPCQPLVPPLSWENVTVDKVLEFPLLKGHPNLCVQVNSSEKLQLQECLWADSLGPLKDDVLLLETRGPQDNRSLCALEPSGCTSLPSKASTRAARLGEYLLQDLQSGQCLQLWDDDLGALWACPMDKYIHKGGGGSGGGGSGGGGSGGGGS[human IgG1 Fc with changes not shown]
notes: The entry may include the signal peptide; also called IL17RC 1210; x1 splice variant IL17RC exons 1-6, exons 8-16
For B4, the concentration for half-maximal inhibition (IC50) is 35 µg/mL and 47 µg/mL and 74 µg/mL with human IL-17A [1]; 31 µg/mL and 61 µg/mL and 67 µg/mL with human IL-17F [2].

B5: IL-17RC-Tbx-C(Fc9), soluble human IL-17RCx1 Fc fusion protein (Fc fusion)
chain: LERLVGPQDATHCSPGLSCRLWDSDILCLPGDIVPAPGPVLAPTHLQTELVLRCQKETDCDLCLRVAVHLAVHGHWEEPEDEEKFGGAADSGVEEPRNASLQAQVVLSFQAYPTARCVLLEVQVPAALVQFGQSVGSVVYDCFEAALGSEVRIWSYTQPRYEKELNHTQQLPALPWLNVSADGDNVHLVLNVSEEQHFGLSLYWNQVQGPPKPRWHKNLTGPQIITLNHTDLVPCLCIQVWPLEPDSVRTNICPFREDPRAHQNLWQAARLRLLTLQSWLLDAPCSLPAEAALCWRAPGGDPCQPLVPPLSWENVTVDKVLEFPLLKGHPNLCVQVNSSEKLQLQECLWADSLGPLKDDVLLLETRGPQDNRSLCALEPSGCTSLPSKASTRAARLGEYLLQDLQSGQCLQLWDDDLGALWACPMDKYIHKGGSGGGTGSLVPRGS[human IgG1 Fc not shown]
notes: also called hIL-17RC-Ig; soluble hIL-17RC
In the case of B5, the “IC50, luciferase in hIL-17RCX4/NIH3T3/KZ142.8 cells, 1 ng/ml IL-17F” value with human IL-17F [4] was found to be 6 µg/mL. In addition, the Kd with human IL-17A [5] was roughly 0.4 nM; with human IL-17F [6] it was roughly 0.4 nM; with human IL-17A [7] it was 0.469 nM and 0.352 nM; in the experiment with human IL-17F [8], 0.435 nM and 0.346 nM; in the experiment with human IL-17A [9] it was 0.469 nM and 0.352 nM; with human IL-17F [10], 0.435 nM and 0.346 nM. In addition, the binding result in the experiment with murine IL-17A and with murine IL-17F was “no binding” in each case. In addition, the koff is 0.00049 s⁻¹ and 0.000438 s⁻¹ with human IL-17A [9]; 0.000431 s⁻¹ and 0.000384 s⁻¹ with human IL-17F [10]. Moreover, the kon with human IL-17A [9] was 1.05e+06 M⁻¹ s⁻¹ and 1.24e+06 M⁻¹ s⁻¹; with human IL-17F [10], 991000 M⁻¹ s⁻¹ and 1.11e+06 M⁻¹ s⁻¹.
